This is an account of results in the supplement of paper PMC12067230.

This is a noisy data set.
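Further: [psi-pin-] Saccharomyces cerevisiae expressing SupN fusions, induced by 100 µM Cu2SO4, selected 7 d at 30 °C without adenine and uracil, scored by deep sequencing of output versus input.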

The first data set in a line: amyloid nucleation score relative to library mode (yeast Sup35 reporter selection) (log enrichment difference); higher = more amyloid nucleation; sequences are the first 22 residues of the Bri2 peptide extended by up to 12 random residues. As to conditions: random library (experiment): 1;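 active = nucleation score significantly above 0 at FDR 0.05; inactive = not significantly above 0 or absent from output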. Here is the method:
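Random C-terminal extensions of the 22-aa Bri2 peptide by 12 NNK codons; premature stops give shorter extensions. Peptides were fused to the Sup35 nucleation domain in S. cerevisiae [psi-pin-] and selected on -ADE-URA plates for 7 d at 30 °C. The nucleation score is log(output/input), centred to the mode of each of 3 independent libraries (1 input, 3 technical output replicates), with duplicates merged. Sequences absent from the output ('random_non_nuc') were imputed with the library mode value, so they are given as censored (<). Nucleators are scores significantly >0 at FDR 0.05.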
Sequence EASNCFAIRHFENKFAVETLICCQHQYMTCYCSV yielded an amyloid nucleation score of 4.77.

As for EASNCFAIRHFENKFAVETLICCQIATLVTLAIL, the amyloid nucleation score entry is “inactive”.

As to EASNCFAIRHFENKFAVETLICCQKAGSTRGALV, the amyloid nucleation score result is “inactive”.

As to EASNCFAIRHFENKFAVETLICCQKSRGSANVQT, the amyloid nucleation score was -0.288.

Sequence EASNCFAIRHFENKFAVETLICCQLSPR yielded an amyloid nucleation score of 7.53.

The sequence EASNCFAIRHFENKFAVETLICCQS registered an amyloid nucleation score of 5.49.

In turn, EASNCFAIRHFENKFAVETLICCQTWMHKKKGTS yielded an amyloid nucleation score of 2.98.

EASNCFAIRHFENKFAVETLICCQVRLTGIGRAY showed an amyloid nucleation score of -0.648.

For EASNCFAIRHFENKFAVETLICCQVSGVITFLVL, the amyloid nucleation score was 5.2.

Turning to EASNCFAIRHFENKFAVETLICCQWGVKNCLCPF, the amyloid nucleation score is 7.08.

Take EASNCFAIRHFENKFAVETLICCQYHQNGLGWYR: the amyloid nucleation score was 6.94.

Sequence EASNCFAIRHFENKFAVETLICCR yielded an amyloid nucleation score of -0.698.

As to EASNCFAIRHFENKFAVETLICCRADMSQMYM, the amyloid nucleation score came out at 7.34.

As for EASNCFAIRHFENKFAVETLICCRCCTERGCV, the amyloid nucleation score came to 6.89.

On to EASNCFAIRHFENKFAVETLICCRCPRTR, for which the amyloid nucleation score came out at 5.54.

Take EASNCFAIRHFENKFAVETLICCREESPWQHAGK: the amyloid nucleation score entry is “inactive”.

As to EASNCFAIRHFENKFAVETLICCREHGPTPSRQM, the amyloid nucleation score is 2.2.

EASNCFAIRHFENKFAVETLICCREVDCSLSF registered an amyloid nucleation score of 2.08.

EASNCFAIRHFENKFAVETLICCRFRRACTFFDF: the amyloid nucleation score result was “inactive”.

In the case of EASNCFAIRHFENKFAVETLICCRG, the amyloid nucleation score entry is “inactive”.

As for EASNCFAIRHFENKFAVETLICCRGAGLVSPSVC, the amyloid nucleation score entry is “inactive”.

Sequence EASNCFAIRHFENKFAVETLICCRHG came in with an amyloid nucleation score of 0.655.

As to EASNCFAIRHFENKFAVETLICCRIWLADVCSNL, the amyloid nucleation score entry was “inactive”.

EASNCFAIRHFENKFAVETLICCRKERVVWVAPW: the amyloid nucleation score entry was “inactive”.

With EASNCFAIRHFENKFAVETLICCRKMPCKPCCIA, the amyloid nucleation score result was “inactive”.

As to EASNCFAIRHFENKFAVETLICCRKTCCYVRLA, the amyloid nucleation score result is “inactive”.

On to EASNCFAIRHFENKFAVETLICCRL, for which the amyloid nucleation score came to 2.94.

In the case of EASNCFAIRHFENKFAVETLICCRLCLCREVTAT, the amyloid nucleation score amounted to 0.12.

In the case of EASNCFAIRHFENKFAVETLICCRLKLHTYVNRT, the amyloid nucleation score entry is “inactive”.

Turning to EASNCFAIRHFENKFAVETLICCRLKTVRVSVSG, the amyloid nucleation score result is “inactive”.

For the sequence EASNCFAIRHFENKFAVETLICCRLNHVREQDR, the amyloid nucleation score worked out at 1.81.

As for EASNCFAIRHFENKFAVETLICCRMETKTHVYWM, the amyloid nucleation score result was “inactive”.

As to EASNCFAIRHFENKFAVETLICCRTSKPPVGTSF, the amyloid nucleation score entry is “inactive”.

For the sequence EASNCFAIRHFENKFAVETLICCRTVVWRMQVVR, the amyloid nucleation score result was “inactive”.

As to EASNCFAIRHFENKFAVETLICCRWNEHAGCGAV, the amyloid nucleation score result is “inactive”.

Consider EASNCFAIRHFENKFAVETLICCRWNVEHRLLTQ, for which the amyloid nucleation score result is “inactive”.

For EASNCFAIRHFENKFAVETLICCRYAISSVCVGH, the amyloid nucleation score result is “inactive”.

As for EASNCFAIRHFENKFAVETLICCSADYWSDALLV, the amyloid nucleation score is 5.81.

The sequence EASNCFAIRHFENKFAVETLICCSCVWSEWIQGS registered an amyloid nucleation score of 8.72.

Regarding EASNCFAIRHFENKFAVETLICCSCWS, the amyloid nucleation score stood at 9.16.

Consider EASNCFAIRHFENKFAVETLICCSDIWVQRKLRG, for which the amyloid nucleation score is 7.33.

EASNCFAIRHFENKFAVETLICCSDVGVVFVADK showed an amyloid nucleation score of 8.58.

For EASNCFAIRHFENKFAVETLICCSELRSAGRWVS, the amyloid nucleation score result is “inactive”.

EASNCFAIRHFENKFAVETLICCSET gave an amyloid nucleation score of 6.04.

Consider EASNCFAIRHFENKFAVETLICCSEVHW, for which the amyloid nucleation score turned out to be 8.57.

In turn, EASNCFAIRHFENKFAVETLICCSG gave an amyloid nucleation score of 2.18.

EASNCFAIRHFENKFAVETLICCSGLHNAEEESK gave an amyloid nucleation score of 8.27.

Staying with this data set, now noted: random library (experiment): 2.
Take EASNCFAIRHFENKFAVETLICCQFVSWCTPNVS: the amyloid nucleation score came out at 7.34.

The sequence EASNCFAIRHFENKFAVETLICCQGVCDSRVCPG had an amyloid nucleation score of 6.75.

On to EASNCFAIRHFENKFAVETLICCQHLDWEVLSTV, for which the amyloid nucleation score result was “inactive”.

EASNCFAIRHFENKFAVETLICCQMRV: the amyloid nucleation score is 1.11.

Take EASNCFAIRHFENKFAVETLICCRAVLEFGMEAS: the amyloid nucleation score result is “inactive”.

With EASNCFAIRHFENKFAVETLICCRCEYVSVNVDN, the amyloid nucleation score was found to be 6.99.

As for EASNCFAIRHFENKFAVETLICCREDTGMPGSAP, the amyloid nucleation score entry was “inactive”.

On to EASNCFAIRHFENKFAVETLICCRERKYHPTMCL, for which the amyloid nucleation score entry is “inactive”.

EASNCFAIRHFENKFAVETLICCRFIFTLVMEHC: the amyloid nucleation score result was “inactive”.

Sequence EASNCFAIRHFENKFAVETLICCRFVS gave an amyloid nucleation score of 2.77.

Consider EASNCFAIRHFENKFAVETLICCRGHTCTSTFGA, for which the amyloid nucleation score was found to be 4.83.

Turning to EASNCFAIRHFENKFAVETLICCRKIFWSTTFCS, the amyloid nucleation score result is “inactive”.

With EASNCFAIRHFENKFAVETLICCRKLVYVMGFQG, the amyloid nucleation score result was “inactive”.

For EASNCFAIRHFENKFAVETLICCRRVILLPFQRI, the amyloid nucleation score entry was “inactive”.

With EASNCFAIRHFENKFAVETLICCRSPVTM, the amyloid nucleation score result is “inactive”.

In turn, EASNCFAIRHFENKFAVETLICCRSVSLSLFVGR showed an amyloid nucleation score of 6.35.

As for EASNCFAIRHFENKFAVETLICCRVHHLSCVSLM, the amyloid nucleation score is 2.91.

For the sequence EASNCFAIRHFENKFAVETLICCRVKL, the amyloid nucleation score result was “inactive”.

In turn, EASNCFAIRHFENKFAVETLICCRVMNNVLLG registered an amyloid nucleation score of 2.87.

In turn, EASNCFAIRHFENKFAVETLICCRVNLSC yielded an amyloid nucleation score of 5.98.

With EASNCFAIRHFENKFAVETLICCRVSMERGRRPM, the amyloid nucleation score result is “inactive”.

On to EASNCFAIRHFENKFAVETLICCRWKGVVVSEAN, for which the amyloid nucleation score came to 2.55.

With EASNCFAIRHFENKFAVETLICCRYIWIGRISEL, the amyloid nucleation score was 3.26.

In the case of EASNCFAIRHFENKFAVETLICCS, the amyloid nucleation score was 5.76.

EASNCFAIRHFENKFAVETLICCSAEHSCTWFTH displayed an amyloid nucleation score of 8.15.

As to EASNCFAIRHFENKFAVETLICCSCFFTFLATTR, the amyloid nucleation score worked out at 8.29.

EASNCFAIRHFENKFAVETLICCSDL: the amyloid nucleation score was found to be 8.

EASNCFAIRHFENKFAVETLICCSFSARRVLRST yielded an amyloid nucleation score of 7.05.

The data set is the same for the next values; noted with them: random library (experiment): 3.
In the case of EASNCFAIRHFENKFAVETLICCQECNKVTPGIT, the amyloid nucleation score result is “inactive”.

Regarding EASNCFAIRHFENKFAVETLICCQSWWVHGEKCM, the amyloid nucleation score came to 0.845.

As to EASNCFAIRHFENKFAVETLICCRAYACLCPASG, the amyloid nucleation score entry is “inactive”.

Consider EASNCFAIRHFENKFAVETLICCRCMR, for which the amyloid nucleation score stood at 7.73.

EASNCFAIRHFENKFAVETLICCRDMSR showed an amyloid nucleation score of 4.32.

Consider EASNCFAIRHFENKFAVETLICCRDRECRLSMMR, for which the amyloid nucleation score entry was “inactive”.

EASNCFAIRHFENKFAVETLICCRGAKWSRRHQS: the amyloid nucleation score entry was “inactive”.

As to EASNCFAIRHFENKFAVETLICCRHSWP, the amyloid nucleation score was 6.39.

For EASNCFAIRHFENKFAVETLICCRILRSGEMSPC, the amyloid nucleation score result was “inactive”.

Regarding EASNCFAIRHFENKFAVETLICCRLSFCHVNGKS, the amyloid nucleation score was 5.93.

Regarding EASNCFAIRHFENKFAVETLICCRLVYQNVLVGS, the amyloid nucleation score entry is “inactive”.

In turn, EASNCFAIRHFENKFAVETLICCRMNVVGQWFEI yielded an amyloid nucleation score of 5.43.

EASNCFAIRHFENKFAVETLICCRPWGDCRNASR displayed an amyloid nucleation score of 3.25.

For the sequence EASNCFAIRHFENKFAVETLICCRRRRAYSAVWR, the amyloid nucleation score entry was “inactive”.

With EASNCFAIRHFENKFAVETLICCRVCLFNCATYS, the amyloid nucleation score amounted to 4.52.

EASNCFAIRHFENKFAVETLICCRVMAFGFDYYN had an amyloid nucleation score of 4.72.

As to EASNCFAIRHFENKFAVETLICCRYWKSRAILCH, the amyloid nucleation score entry was “inactive”.

The sequence EASNCFAIRHFENKFAVETLICCSAGTERRWAWS registered an amyloid nucleation score of 8.35.

Take EASNCFAIRHFENKFAVETLICCSDSAGMHPRRL: the amyloid nucleation score turned out to be 3.82.

In turn, EASNCFAIRHFENKFAVETLICCSETCTKWNWEW returned an amyloid nucleation score of 5.2.

As to EASNCFAIRHFENKFAVETLICCSFAVQISEVQR, the amyloid nucleation score amounted to 8.46.

Turning to EASNCFAIRHFENKFAVETLICCSGCLRRLVLGV, the amyloid nucleation score entry was “inactive”.

For EASNCFAIRHFENKFAVETLICCSGCSMSDSVRR, the amyloid nucleation score came to 8.35.

Turning to EASNCFAIRHFENKFAVETLICCSGEMVLSCAKR, the amyloid nucleation score worked out at 8.28.

Sequence EASNCFAIRHFENKFAVETLICCSGH displayed an amyloid nucleation score of 7.29.

As for EASNCFAIRHFENKFAVETLICCSGHKMYVITSP, the amyloid nucleation score entry was “inactive”.
